Data from PubChem BioAssay AID1508642 (National Center for Advancing Translational Sciences (NCATS), 2021).
Among all 43,000 compounds or so, about 200 (0.47%) were called active. Another 12% or so got no clear call; they are omitted. Calls come from the whole dose curve; as a rule, active = well fitted cell-killing curve with a large enough effect; inconclusive = small, poorly fitted or top-dose-only effect, or effect the other way; inactive = flat fitted curve, though single readings scatter. The list shows a part of the results.

assay: Cell viability qHTS assay in S16 Pmp22-F2sN cells; conditions: S16 Pmp22-F2sN Schwann cells (luciferase reporters placed in the Pmp22 gene) viability, CellTiter-Glo, 24 h; series mostly up to 57.5 µM; activity change, negative = cytotoxicity: at the top concentration; note: nearly all actives have a fitted effect of over 65% in size
In short: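 Rat S16 Schwann reporter line, 24 h treatment with library compounds delivered at 23 nL per well. Cell viability by CellTiter-Glo luminescence.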
% is set by controls: 0 for no effect and ±100 for the full control effect.

Row | Structure (SMILES) | activity change, negative = cytotoxicity
1 | COC(=O)c1scc(-c2ccc(C)cc2)c1S(=O)(=O)N1CCN(c2ccc(F)cc2)CC1 | inactive: 26.4%
2 | Nc1c(C(=O)NCc2cccs2)nnn1CC(=O)Nc1cccc(F)c1 | inactive: -5.08%
3 | O=C(O)c1ccc(NS(=O)(=O)c2ccc(Cl)c(C(=O)Nc3ccccc3)c2)cc1 | inactive: 7.28%
4 | Cc1ccc(N(C)S(=O)(=O)c2ccc3[nH]c(=O)ccc3c2)cc1 | inactive: 6.29%
5 | O=C(c1ccc(CS(=O)(=O)c2ccc(Br)cc2)o1)N1CCN(c2ccc(F)cc2)CC1 | inactive: 9.83%
6 | COC(=O)c1ccc(CSc2c(C(C)C)cnc3c2c(=O)n(C)c(=O)n3C)cc1 | inactive: 9.77%
7 | COc1cccc(CN2C(=O)C3(SCC(=O)N3c3ccc(C)c(Cl)c3)c3ccccc32)c1 (stereo not drawn) | inactive: -0.79%
8 | Cc1cc(C)n(C(C)CC(=O)Nc2ccc(Cl)cc2C)n1 (stereo not drawn) | inactive: -1.25%
9 | Cc1cccc(C(=O)n2nc(C)c(S(=O)(=O)N3CCOCC3)c2C)c1 | inactive: -1.88%
10 | CCCCC(=O)N1CCc2cc(OC)c(OC)cc2C1COc1ccc(C(=O)OCC)cc1 (stereo not drawn) | inactive: -19.9%
11 | CCOc1ccc(Sc2cc(C(=O)NCc3ccc(C)cc3)c3ccccc3n2)cc1 | inactive: -6.71%
12 | COCCCn1c(=N)c(C(=O)NC2CCCC2)cc2c(=O)n3cccc(C)c3nc21 | inactive: 8.41%
13 | CCOc1ccccc1NS(=O)(=O)c1cc2[nH]c(=O)c(=O)[nH]c2cc1C | inactive: 6.77%
14 | COc1ccc(Cn2ccc3nc(C)c(C(=O)Nc4cc(OC)c(OC)c(OC)c4)cc3c2=O)cc1 | inactive: -3.47%
15 | CCOC(=O)c1cc(-c2ccc(C)cc2)n(CCCC(=O)Nc2cc(C)ccc2C)c1 | inactive: -15.6%
16 | CCOc1ccc(C(=O)Nc2ccc3oc(-c4ccc(C)cc4C)nc3c2)cc1Br | inactive: 5.99%
17 | CCOc1ccc(NC(=O)Cn2c(=O)n(CCCCC(=O)NCCc3ccc(Cl)cc3)c(=O)c3ccccc32)cc1 | inactive: 19.9%
18 | CCc1ccccc1NC(=O)CC1NCCNC1=O (stereo not drawn) | inactive: -0.548%
19 | O=C(C1CCC(CNS(=O)(=O)c2ccc(Br)s2)CC1)N1CCN(c2ccc(F)cc2)CC1 (stereo not drawn) | inactive: -5.65%
20 | O=C(Nc1cccc(Cl)c1)N1CC2CCCN2c2ccccc21 (stereo not drawn) | inactive: -20%
21 | COc1ccc(-c2nc3n(n2)C(c2ccccc2OC)C(C(=O)Nc2cccnc2)=C(C)N3)cc1 (stereo not drawn) | inactive: -11.3%
22 | CCOc1ccccc1NC(=O)c1c2c(nc3ccccc13)C(=O)N(C1CCCCC1)C2 | inactive: 0.485%
23 | CCOc1ccc(-n2c(SCC(=O)NCc3ccccc3)nc3n[nH]c(C)c3c2=N)cc1 | inactive: -9.12%
24 | CCOC(=O)N1CCc2c(sc(NCc3ccc(N(CC)CC)cc3)c2C(=O)Nc2cc(OC)ccc2OC)C1 | inactive: -19.6%

Row | Structure (SMILES) | activity change, negative = cytotoxicity
25 | Cc1ccc(-n2c(=O)c3ccc(C(=O)NCc4ccco4)cc3n(CC(=O)Nc3ccc(C)c(F)c3)c2=O)cc1 | inactive: -2.39%
26 | Cc1ccc(NS(=O)(=O)c2ccc3c(c2)N(C)C(=O)CC(=O)N3C)cc1Cl | inactive: -10.3%
27 | COc1ccc(CNC(=O)c2ccc3c(c2)nc2n3CCCCC2)cc1 | inactive: 2.94%
28 | CCC1CN(C(=O)N2CCC(C(=O)N3CCN(c4ccccc4)CC3)CC2)c2ccccc2O1 (stereo not drawn) | inactive: -1.49%
29 | COc1cccc(C(=O)N2CCCCC2CCN2CCCCC2)c1 (stereo not drawn) | inactive: 8.76%
30 | CCc1ccc(-n2nc(CO)c(C(=O)NCCc3ccccc3)n2)cc1 | inactive: -3.26%
31 | O=C(CSc1nc2c([nH]c3ccccc32)c(=O)n1-c1ccc(F)cc1)N1CCc2ccccc21 | inactive: 0.451%
32 | Cc1cc(C)cc(-n2c(SCC(=O)N3CCC(C)CC3)nc3c([nH]c4ccccc43)c2=O)c1 | inactive: 1.93%
33 | Cc1ccc(C)c(N2CCN(C(=O)Cc3c(C(=O)O)c(C)cn3C)CC2)c1 | inactive: -3.27%
34 | COc1ccc(OC)c(NC(=O)c2cccc3c2C(=O)N(C2CCCCC2)C3)c1 | inactive: -24.8%
35 | Cc1cccc(Cn2c(CNS(=O)(=O)c3ccc(C(C)C)cc3)nc3cccnc32)c1 | inactive: 16.3%
36 | Cc1oc(-c2ccccc2F)nc1CS(=O)CC(=O)NC(C)C (stereo not drawn) | inactive: 6.77%
37 | CCOc1ccc(CCNC(=O)c2nnc(Cc3ccc(Cl)cc3Cl)o2)cc1OCC | inactive: 9.89%
38 | COc1cc(OC)c(N(C)C(=O)c2c(C)oc3ncnc(N4CCCCC4)c23)cc1Cl | inactive: -3.16%
39 | O=S(=O)(c1ccc(F)cc1)N(CC(O)Cn1c2ccccc2c2ccccc21)c1ccccc1 (stereo not drawn) | inactive: 1.75%
40 | COc1ccc(C(=O)NCC(c2ccc3c(c2)OCO3)N2CCN(C)CC2)cc1 (stereo not drawn) | inactive: 4.52%
41 | COc1ccc(NC(C)=O)cc1NC(=O)C1(c2cccs2)CCOCC1 | inactive: 1.7%
42 | CCOC(=O)c1cc2c(=O)n3ccccc3nc2n(CC2CCCO2)c1=NC(=O)c1ccccc1C (stereo not drawn) | inactive: 3.69%
43 | CCn1cc(/C=C(\NC(=O)c2ccc(C)cc2)C(=O)NCCCn2ccnc2)c2ccccc21 | inactive: 14.5%
44 | CCOc1ccc2nc(N3CCN(C(=O)c4ccco4)CC3)sc2c1 | inactive: -16.9%
45 | CC(=O)c1ccc(NC(=O)COc2ccccc2-c2nc(-c3ccc(C)cc3)no2)cc1 | inactive: 2.4%
46 | O=C(NC1CC(=O)N(c2cccc(F)c2)C1)c1ccc2c(c1)OCO2 (stereo not drawn) | inactive: 0.36%
47 | Cc1ccc(OCC(=O)Nc2ccccc2C(=O)OCc2cc(=O)n3ccsc3n2)cc1 | inactive: 1.31%
48 | O=C(C1CCC(Cn2c(=O)c3sccc3n(Cc3ccccc3)c2=O)CC1)N1CCOCC1 (stereo not drawn) | inactive: -4.22%
